# Assay results taken from PubChem BioAssay AID504332 (National Center for Advancing Translational Sciences (NCATS), 2011).
# Several values for one entry are separate records, joined by “and”; a condition that tells them apart may be missing. Identical values can stand only once. In all, about 350,000 compounds went through this assay and about 31,000 (8.9%) were called active. This list was built around the results that the source calls inconclusive (neither active nor inactive); the mix of calls is not that of the screen. The call rests on the fitted dose curve; in most records, active means well fitted inhibition curve with a large enough effect; inconclusive means small, poorly fitted or top-dose-only effect; inactive means no such curve, though single readings can be large or run the other way. Potencies beside an inconclusive call are fits to weak or partial responses and may not hold up.
# Target: Histone-lysine N-methyltransferase EHMT2 (Homo sapiens) (UniProt Q96KQ7)
# Chain of UniProt Q96KQ7 (Q96KQ7 whole entry, looked up): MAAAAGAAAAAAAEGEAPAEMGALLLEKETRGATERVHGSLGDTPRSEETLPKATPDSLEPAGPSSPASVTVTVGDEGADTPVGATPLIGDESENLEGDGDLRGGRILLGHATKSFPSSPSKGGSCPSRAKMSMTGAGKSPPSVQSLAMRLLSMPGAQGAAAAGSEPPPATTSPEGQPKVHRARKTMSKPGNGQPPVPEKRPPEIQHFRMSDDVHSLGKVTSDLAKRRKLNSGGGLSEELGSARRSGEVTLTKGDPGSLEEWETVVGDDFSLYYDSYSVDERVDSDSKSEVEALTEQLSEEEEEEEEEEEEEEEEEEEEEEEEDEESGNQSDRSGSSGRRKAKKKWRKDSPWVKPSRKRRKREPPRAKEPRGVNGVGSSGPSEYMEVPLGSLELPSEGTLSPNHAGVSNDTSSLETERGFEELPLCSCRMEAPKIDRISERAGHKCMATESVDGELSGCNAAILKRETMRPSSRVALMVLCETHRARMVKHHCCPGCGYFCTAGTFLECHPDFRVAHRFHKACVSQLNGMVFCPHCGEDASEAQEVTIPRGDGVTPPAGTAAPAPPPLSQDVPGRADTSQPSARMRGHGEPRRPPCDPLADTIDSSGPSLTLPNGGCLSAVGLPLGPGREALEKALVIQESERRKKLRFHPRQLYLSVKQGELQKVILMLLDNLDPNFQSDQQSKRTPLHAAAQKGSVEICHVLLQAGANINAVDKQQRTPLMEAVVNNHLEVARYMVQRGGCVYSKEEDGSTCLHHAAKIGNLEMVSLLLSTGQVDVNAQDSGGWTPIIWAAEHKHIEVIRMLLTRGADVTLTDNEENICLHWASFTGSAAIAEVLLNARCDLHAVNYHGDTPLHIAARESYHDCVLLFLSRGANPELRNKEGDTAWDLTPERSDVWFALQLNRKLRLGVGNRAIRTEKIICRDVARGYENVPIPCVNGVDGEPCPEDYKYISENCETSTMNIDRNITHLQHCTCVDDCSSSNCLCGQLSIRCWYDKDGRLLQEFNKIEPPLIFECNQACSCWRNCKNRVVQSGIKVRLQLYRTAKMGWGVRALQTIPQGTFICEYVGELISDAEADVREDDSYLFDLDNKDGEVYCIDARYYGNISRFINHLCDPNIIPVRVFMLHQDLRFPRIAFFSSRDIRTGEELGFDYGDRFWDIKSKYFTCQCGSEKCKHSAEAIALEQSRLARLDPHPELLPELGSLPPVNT
# Experiment: qHTS Assay for Inhibitors of Histone Lysine Methyltransferase G9a; further: nearly all actives have a fitted effect of over 75% in size
# Details: G9a H3K9 monomethylation, AlphaScreen, 2 h; activity, negative = inhibition: at 59 µM (top of the series) unless noted
# Method in brief: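 AlphaScreen detection with an anti-monomethyl H3K9 antibody quantified product after a 2 h room-temperature reaction containing 500 nM biotinylated H3K9 peptide, 20 µM SAM and 20 nM enzyme, which had been preincubated 15 min with compound.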
# On the % scale 0 is the no-effect control and ±100 the full control effect; potency means the concentration at half of the fitted maximal effect; tags describe the fitted curve by direction and shape.
SMILES,Potency,"activity, negative = inhibition"
Cc1ccccc1NC(=O)c1ccc(NC(=O)N2CCSc3ncccc32)cc1,"inconclusive: 5.62 µM [inhibitor, partial curve, poor fit]",
COc1ccccc1OCC(=O)NC1CCSc2ccccc21 (stereo unspecified),,inactive: 4.79% [at 12.7 µM]
COc1ccc(S(=O)(=O)NCc2ccccn2)cc1Cl,,inconclusive: -55.2% [inhibitor]
Cc1cc(NC(=O)c2cc(-c3ccncc3)nc3c(C)cccc23)no1,,inactive: -2.7% [at 12.7 µM]
Cc1ccc(-n2c(-c3cn(C)nc3C)n[nH]c2=S)cc1,"inconclusive: 28.2 µM [inhibitor, single point]",
O=C1C2C3C=CC(CNS(=O)(=O)c4ccccc4[N+](=O)[O-])(O3)C2C(=O)N1c1ccccc1 (stereo unspecified),active: 4.47 µM,
COCCn1c(C)cc(O)c(C(c2ccccc2)N2CCN(c3ccc(F)cc3)CC2)c1=O (stereo unspecified),"inconclusive: 39.8 µM [inhibitor, single point]",
Cc1cccc(NC(=O)C(C)SCc2nc3sc(C)c(C)c3c(=O)[nH]2)n1 (stereo unspecified),active: 44.7 µM,
Cc1nc2nc[nH]n2c(=O)c1NC(=O)c1cccc(OCC(C)C)c1,"inconclusive: 3.55 µM [inhibitor, single point]",
CN(C)c1ccc(C(=O)OCC(=O)NC2CCCCC2)cc1,"inconclusive: 70.8 µM [inhibitor, single point]",
CC(OC(=O)c1nc(-c2ccccc2)n(-c2ccccc2)n1)C(=O)Nc1cc(Cl)cc(Cl)c1 (stereo unspecified),"inconclusive: 89.1 µM [inhibitor, single point]",
Cc1ccc2c(c1)c1c(n2C)-c2[nH]ncc2CC1,"inconclusive: 28.2 µM [inhibitor, single point]",
CC1CCCN(c2ccc(C(=O)NCc3ccc4c(c3)OCO4)cc2[N+](=O)[O-])C1 (stereo unspecified),active: 14.1 µM,
Cc1ccc(CCNC(=O)CN(C)S(=O)(=O)c2ccc3c(c2)n(C)c(=O)c(=O)n3C)cc1,,inactive: -5.46% [at 102 µM]
CC(=O)c1cccc(NC(=O)C2=CN3CCS(=O)(=O)N=C3C=C2)c1,,inactive: 21.6% [at 12.7 µM]
CCOC(=O)c1[nH]c2ccccc2c1NC(=O)c1nonc1C,"inconclusive: 44.7 µM [inhibitor, partial curve]",
Oc1ccc(Br)cc1/C=N/Nc1ncc(-c2ccccc2)cn1,,inactive: 16.7% [at 102 µM]
COC(=O)c1c(SC)nc2ccccc2c1OCc1cccc(C)c1,,inactive: 92%
CCOC(=O)C1CCCN(c2nc3ccccc3nc2C(C#N)C(=O)OC(C)COC)C1 (stereo unspecified),"inconclusive: 25.1 µM [inhibitor, single point]",
O=S(=O)(NCC(c1ccco1)N1CCN(c2ccc(F)cc2)CC1)c1ccc2c(c1)OCCO2 (stereo unspecified),"inconclusive: 25.1 µM [inhibitor, single point]",
O=C(Nc1ccc(F)cc1)c1ccc(-n2cnc3cccnc32)cc1,,inactive: -1.44%
CCc1nnc(NC(=O)CCS(=O)(=O)Cc2ccccc2)s1,active: 50.1 µM,
O=C(CCCn1cnc([N+](=O)[O-])n1)Nc1cccc(O)c1,"inconclusive: 89.1 µM [inhibitor, partial curve, poor fit]",
N#C/C(=C\c1ccccc1)C(=O)Nc1nncs1,active: 50.1 µM,

SMILES,Potency,"activity, negative = inhibition"
CCCC(=O)Nc1nnc(/C=C/c2ccccc2)s1,"inconclusive: 89.1 µM [inhibitor, single point]",
c1ccc(CN2C3=NCCN3c3ccccc32)cc1,"inconclusive: 89.1 µM [inhibitor, single point]",
CC1CCCC/C1=N\NC(=S)NCCc1ccccc1 (stereo unspecified),"inconclusive: 79.4 µM [inhibitor, single point]",
COc1ccc(CNS(=O)(=O)c2ccc(-n3cnnn3)c(C)c2)cc1,"inconclusive: 79.4 µM [inhibitor, single point]",
CCCn1cc(S(=O)(=O)c2ccc(F)cc2)c(=O)c2cc(OCC)ccc21,,inactive: 13.5% [at 102 µM]
O=C(CC1Nc2c3ccccc3nc(=S)n2C1=O)NC1CCCCC1 (stereo unspecified),"inconclusive: 39.8 µM [inhibitor, partial curve, poor fit]",
Cc1nc2nc(COc3ccccc3)[nH]n2c(=O)c1Cl,"inconclusive: 0.355 µM [inhibitor, full curve, poor fit]",
CCC(CC)C(=O)Nc1cccc(-c2nc3cccnc3s2)c1,,inactive: -4.65%
COc1cccc(CN2CCCC(C(=O)N3CCCCC3)C2)c1 (stereo unspecified),active: 10 µM,
CN1CC(=O)N(CC(=O)N2CCC(Cc3ccccc3)CC2)C1=O,"inconclusive: 50.1 µM [inhibitor, partial curve, poor fit]",
Cn1c(-c2ccc(F)cc2)cnc1SCC(=O)NCc1ccco1,"inconclusive: 56.2 µM [inhibitor, partial curve, poor fit]",
CCOC(=O)c1[nH]c(C)c(CCC(=O)Nc2cc(Cl)ccc2C)c1C,,inactive: 6.49%
CCOC(=O)N1CCC(Nc2c(NCCN3CCN(c4ccccc4F)CC3)c(=O)c2=O)CC1,,inactive: 11.7% [at 102 µM]
O=C(CNC(=O)c1cccc(F)c1)OCC(=O)N1CCCCC1,active: 15.8 µM,
Cc1csc(NC(=O)c2nc(-c3ccccc3)n(-c3ccccc3)n2)n1,"inconclusive: 3.16 µM [inhibitor, single point]",
CCN(CC)c1ccc(NC(=O)CCS(=O)(=O)c2cccc3nsnc23)c(C)c1,active: 8.91 µM and active: 39.8 µM,
Fc1ccccc1/C=N/Nc1ncnc2ccccc12,"inconclusive: 50.1 µM [inhibitor, partial curve, poor fit]",
CS(=O)(=O)N(Cc1ccccc1)c1ccc(C(=O)Nc2ccc3c(c2)OCO3)cc1,"inconclusive: 39.8 µM [inhibitor, single point]",
S=c1[nH]nc(COc2ccc(Cl)cc2)n1Cc1ccccc1,"inconclusive: 50.1 µM [inhibitor, partial curve, poor fit]",
CCc1ccc(NC(=O)N2CC=C(c3c[nH]c4ccccc34)CC2)cc1,"inconclusive: 28.2 µM [inhibitor, partial curve, poor fit]",
COCCN1CCN(C(=O)c2cc(COc3cc(C)ccc3C)on2)CC1,,inactive: 20.8% [at 102 µM]
Cc1ccc(-c2csc(NC(=O)CSC3=NCCS3)n2)cc1,,inactive: 0.79%
COc1ccc2c(c1)Cc1sc(NC(=O)c3ccccc3)nc1-2,"inconclusive: 35.5 µM [inhibitor, single point]",
CNc1nc(N)c(C(=O)C23CC4CC(CC(C4)C2)C3)s1,"inconclusive: 25.1 µM [inhibitor, partial curve]",

SMILES,Potency,"activity, negative = inhibition"
CC(C)CNC(=O)NC(=O)COC(=O)c1cc([N+](=O)[O-])ccc1NCc1ccccc1Cl,"inconclusive: 25.1 µM [inhibitor, full curve]",
Cc1csc2nc(COC(=O)c3ccccc3NC(=O)c3ccccc3Cl)cc(=O)n12,,inactive: 6.79%
Cc1cn2c(=O)cc(COC(=O)c3cccc(NC(=O)C(C)Oc4ccccc4)c3)nc2s1 (stereo unspecified),,inactive: 23.2%
Cc1cc(C)c2c(=O)n(CC(=O)Nc3ccc(Cl)cc3)sc2n1,active: 0.0891 µM,
CN(C)c1ccc(C2/C(=C(/O)c3ccc(Br)cc3)C(=O)C(=O)N2C)cc1 (stereo unspecified),active: 39.8 µM,
CCSC1=NC2(CCN(C(=O)NC3CCCCC3)CC2)N=C1c1ccc(C)cc1,,inactive: 6.45%
CCC(C)C(=O)Nc1nc(C)c(-c2csc(Nc3ccccc3OC)n2)s1 (stereo unspecified),"inconclusive: 15.8 µM [inhibitor, partial curve, poor fit]",
COc1ccc(C(CC(=O)O)NC(=O)COc2ccccc2)cc1OC (stereo unspecified),active: 79.4 µM,
CCOc1ccc(OCC)c(NS(=O)(=O)c2cccc3nsnc23)c1,,inconclusive: -66.1% [inhibitor]
COc1ccc(C)cc1NC(=O)C1CC(=O)N(Cc2ccco2)C1 (stereo unspecified),"inconclusive: 70.8 µM [inhibitor, partial curve]",
CN(C)CCCN(C(=O)COc1ccc(Cl)cc1)c1nc2c(F)cccc2s1,"inconclusive: 79.4 µM [inhibitor, single point]",
Cc1ccc(N(CCC#N)C(=O)CN2C(=O)NC(Cc3ccccc3)C2=O)cc1 (stereo unspecified),,inactive: 9.4% [at 102 µM]
CCOC(=O)c1c(NC(=O)CSc2nnnn2-c2ccc(OC)cc2)sc(C)c1C,"inconclusive: 1.41 µM [inhibitor, full curve, poor fit]",
CC1CC(C)CN(C(=O)c2ccc3c(c2NCCO)C(=O)c2ccccc2C3=O)C1 (stereo unspecified),active: 28.2 µM,
CCOC(=O)c1c(NC(=O)CN2CCN(C(=O)c3ccco3)CC2)sc2c1CCCC2,"inconclusive: 39.8 µM [inhibitor, single point]",
N#CC1=C(N)Nc2ncnn2C1c1ccc(F)cc1 (stereo unspecified),active: 39.8 µM,
COc1ccc(Nc2cc(C(=O)NCCCN(C)Cc3ccccc3)c3ccccc3n2)cc1OC,"inconclusive: 28.2 µM [inhibitor, single point]",
Cc1cc(Nc2ccc(F)cc2)n2nc(C)nc2n1,,inactive: -45.5% [at 102 µM]
Cc1cccc(NC(=O)CSc2nnc(-c3ccccc3C)o2)c1,"inconclusive: 39.8 µM [inhibitor, single point]",
COCCOC(=O)C1=C(C)OC(N)=C(C#N)C1c1ccco1 (stereo unspecified),"inconclusive: 39.8 µM [inhibitor, single point]",
Cc1cc(-c2ccc(C)c(S(=O)(=O)NCCC(C)N3CCCCCC3)c2)on1 (stereo unspecified),"inconclusive: 70.8 µM [inhibitor, single point]",
CC1=C(C(=O)Nc2ccc(Cl)cc2)C(c2cccs2)n2nc(SCc3cccc(Cl)c3)nc2N1 (stereo unspecified),"inconclusive: 17.8 µM [inhibitor, single point]",
Cc1ccc(S(=O)(=O)n2cnc3ccccc32)c(C)c1,"inconclusive: 39.8 µM [inhibitor, single point]",
